Results taken from PubChem BioAssay AID686978 (National Center for Advancing Translational Sciences (NCATS), 2013).
Values joined by “and” are separate entries in the source; they are usually repeats but may differ in a detail not shown here. Identical values can stand only once. Out of some 420,000 compounds screened, about 64,000 (15%) were called active. Inconclusive means that the source gave no clear call. Such entries were picked first, then a sample of the others. Calls come from the whole dose curve; as a rule, active = well fitted inhibition curve with a large enough effect; inconclusive = small, poorly fitted or top-dose-only effect; inactive = flat fitted curve, though single readings scatter. Potencies beside an inconclusive call are fits to weak or partial responses and may not hold up.

Assay: qHTS for Inhibitors of human tyrosyl-DNA phosphodiesterase 1 (TDP1): qHTS in cells in absence of CPT; note: nearly all actives have a fitted effect of over 55% in size
Settings: DT40 Tdp1-/- hTDP1 cells, no CPT, ATP luminescence, 48 h; activity change, negative = growth inhibition: at 46.2 µM (top of the series) unless noted
In short: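 No-CPT arm: Tdp1-/-;hTDP1 DT40 cells (400/well) plus compounds, incubated ≥48 hr at 37 °C. Readout CellTiter-Glo luminescence.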
% is set by controls: 0 for no effect and ±100 for the full control effect; potency is the fitted concentration of half-maximal effect; tags give direction and shape of the fitted curve.

| Compound | Potency | activity change, negative = growth inhibition |
| --- | --- | --- |
| CC(C)(C)N(Cc1ccccc1)C(=O)CCc1ccccc1 | inconclusive: 29.1 µM [inhibitor, single point] | – |
| CCN(CC)c1ccc(/C=N/Nc2nc(C)cc(=O)[nH]2)cc1 | inconclusive: 3.66 µM [inhibitor, full curve] | – |
| Cc1cccc(-c2nc(CCNC(=O)c3ccco3)cs2)c1 | inconclusive: 25.9 µM [inhibitor, single point] and inconclusive: 29.1 µM [inhibitor, single point] | – |
| CCOC(=O)c1ccc(NC(=O)CCS(=O)(=O)c2ccc(C)cc2)cc1 | active: 20.6 µM | – |
| O=C(NC1CCCCCC1)c1ccc(=O)n(Cc2ccccc2)n1 | inconclusive: 25.9 µM [inhibitor, single point] | – |
| CCc1cccc2c(/C=N/NC(=O)c3cccc(S(=O)(=O)Nc4ccccc4Cl)c3)c[nH]c12 | inconclusive: 29.1 µM [inhibitor, single point] | – |
| CCOC(=O)C1=C(C)NC(SCC(N)=O)=C(C#N)C1c1cccs1 (stereo not given) | inconclusive: 32.6 µM [inhibitor, single point] | – |
| CC(CC(=O)Nc1ccc2c(c1)c(=O)n(C)n2Cc1ccc(Cl)cc1)C(F)(F)F (stereo not given) | active: 9.2 µM | – |
| CCOC(=O)Cc1csc(NS(=O)(=O)c2ccc(F)cc2)n1 | inconclusive: 25.9 µM [inhibitor, single point] | – |
| CC(=O)Nc1ccc(S(=O)(=O)NNC(=O)COc2ccc(C(C)(C)C)cc2)cc1 | inconclusive: 18.4 µM [inhibitor, single point] | – |
| O=c1[nH]c2cc(Cl)c(Cl)cc2[nH]c1=O | inconclusive: 16.4 µM [inhibitor, partial curve, poor fit] | – |
| COC(=O)c1c(NC(=O)c2nc(SCc3cccc(C)c3)ncc2Cl)sc2c1CCCC2 | – | inactive: -2.79% |
| Cc1cccc(C(=O)Nc2ccc(C(=O)N/N=C/c3cccnc3)cc2)c1 | – | inactive: -19.2% |
| CN(CC(=O)Nc1c(Cl)cccc1Cl)C(=O)CNC(=O)c1ccc2c(c1)OCO2 | inconclusive: 5.8 µM [inhibitor, partial curve] | – |
| COc1ccc(-n2nnc(-c3nc(-c4cccs4)no3)c2N)cc1OC | – | inactive: -6.89% |
| COc1cc2c(cc1OC)C(=O)C(c1ccc3c(c1)OCO3)CC2 (stereo not given) | inconclusive: 29.1 µM [inhibitor, single point] | – |
| Clc1ccc2c(c1)[C@H]1OCC[C@H]1[C@@H](c1ccco1)N2 | inconclusive: 20.6 µM [inhibitor, single point] | – |
| CN(C)c1cccc(NC(=O)c2cccc3ccccc23)c1 | – | inconclusive: -34.6% [inhibitor] |
| COc1ccc(NC(=O)CN2C(=O)C(C)Oc3ccccc32)c(OC)c1 (stereo not given) | inconclusive: 29.1 µM [inhibitor, single point] | – |
| Cc1ccc(SCCC(=O)N2CCN(S(=O)(=O)c3ccccc3)CC2)cc1 | inconclusive: 18.4 µM [inhibitor, single point] | – |
| COc1cc(/C=C/c2onc(C)c2[N+](=O)[O-])cc(OC)c1OC | – | inactive: -20.6% |
| O=c1oc2ccc(C#CC3(O)CCCCC3)cc2cc1-n1cc(-c2ccsc2)nn1 | – | inactive: -28.1% |
| N[C@H](C(=O)O)[C@@H]1C[C@@H]1C(=O)O | inactive | – |

| Compound | Potency | activity change, negative = growth inhibition |
| --- | --- | --- |
| CCc1ccc(CNC(=O)COc2cc(=O)n(CC)c3ccccc23)cc1 | active: 25.9 µM | – |
| O=C1[C@H](Cc2ccccc2)NCCCC[C@H](c2ccco2)N1Cc1ccccc1 | active: 2.82 µM and active: 20.6 µM | – |
| CC(=O)N1CCCC1c1nc2ccccc2n1Cc1cccc(Cl)c1 (stereo not given) | inconclusive: 20.6 µM [inhibitor, partial curve] | – |
| CC(/C=N\N1CCN(Cc2ccc(C)cc2)CC1)=C\c1ccccc1 | – | inactive: -22.8% |
| O=c1c2ccccc2nc(-c2ccccc2Cl)n1O | – | inactive: -10.1% |
| O=C(CN1CCN(c2ccc(F)cc2)CC1)Nc1ccccc1C(=O)NCCc1ccccc1 | active: 16.4 µM | – |
| CC1(C)C(=O)NCCN1C(=O)CSc1nccc(-c2ccc(Br)cc2)n1 | active: 16.4 µM | – |
| COc1ccc(N2CCN(S(=O)(=O)c3ccc(-n4cnnn4)c(C)c3)CC2)cc1 | inconclusive: 16.4 µM [inhibitor, single point] | – |
| CCc1ccc(CNC(=O)C2CCC(=O)N(CCc3ccc(Cl)cc3)C2)nc1 (stereo not given) | inconclusive: 29.1 µM [inhibitor, single point] | – |
| O=C(/C=C/c1ccccc1)N(c1ccccn1)C1CCCCC1 | inconclusive: 23.1 µM [inhibitor, single point] | – |
| Cc1cc(C(=O)NC2CCCc3c2cnn3-c2cccc(C)c2C)n(C)n1 (stereo not given) | active: 0.206 µM | – |
| CCOC(=O)C(=CNc1cc(C)nn1-c1ccc(Cl)cc1)C(=O)OCC | inconclusive: 25.9 µM [inhibitor, single point] | – |
| Cc1cc(Cl)ccc1OCC(=O)NNC(=O)c1ccco1 | – | inactive: -6.28% |
| COc1cccc(CNc2nc3cc(-c4ccsc4)sc3c(=O)n2C)c1OC | inconclusive: 18.4 µM [inhibitor, single point] | – |
| CC1CCC(NC(=O)CN2CCC(n3nnc4cc(F)ccc43)CC2)CC1 (stereo not given) | inconclusive: 25.9 µM [inhibitor, single point] | – |
| Cc1cccc(Nc2nn3c(=O)c4ccccc4nc3s2)c1 | – | inactive: -9.14% |
| CC(C)C[C@@H](CN1CCC[C@H]1CN1C(=O)C(=O)NC[C@@H]1Cc1ccccc1)N1C[C@H](Cc2ccc(O)cc2)N(CC2CCCCCC2)C(=O)C1=O | active: 23.1 µM | – |
| O=C(c1ccccc1)N1CCN=C1SCc1ccc([N+](=O)[O-])cc1 | inconclusive: 23.1 µM [inhibitor, single point] | – |
| Cc1sc2ncnc(Sc3ccccc3C(=O)Nc3ccccc3Cl)c2c1C | active: 18.4 µM | – |
| CNc1ccc(C(=O)c2ccccc2C(=O)O)cc1[N+](=O)[O-] | inconclusive: 3.66 µM [inhibitor, partial curve] | – |
| CC1=C(c2ccc(F)cc2)S(=O)(=O)NC1=NCc1ccccc1F | inconclusive: 29.1 µM [inhibitor, single point] | – |
| C/C=C\C(=O)Nc1cccc(C2=NOC3(C2)C[C@@H](C(N)=O)N(C(=O)c2ccccc2)C3)c1 (stereo not given in full) | – | inactive: -11.2% |
